Results taken from PubChem BioAssay AID1963576 (National Center for Advancing Translational Sciences (NCATS), 2024).
Screen size: about 46,000 compounds; about 60 (0.1%) were called active. Roughly 3% stayed inconclusive and do not appear here. Calls follow the shape of the dose curve; as a rule, active = well fitted inhibition curve with a large enough effect; inconclusive = small, poorly fitted or top-dose-only effect; inactive = no such curve, though single readings can be large or run the other way. The list shows a part of the results.

test: Primary qHTS assay for Inhibitors of ovarian cancer metastasis using an organotypic tumor microenvironment (TME) model.; also: nearly all actives have a fitted effect of over 65% in size;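 as to activity change, negative = inhibition: plate controls were DMSO wells for no effect and tomatine positive control wells for full effect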; conditions: SKOV3ip1-GFP adhesion/invasion on 3D omental model, fluorescence; series mostly up to 45.8 µM; activity change, negative = inhibition: at the top concentration
Outline: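 Primary human omental fibroblast/mesothelial 3D culture pre-formed 48 h. SKOV3ip1-GFP cells added with compounds (0.36-46 umol/L), incubated 2 h RT/16 h 37 C, fixed; GFP cells quantified at 488/509 nm.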

Activity change, negative = inhibition, inactive:
CCCCC(=O)N1CCc2cc(OC)c(OC)cc2C1COc1ccc(C(=O)OCC)cc1 (stereo not given) 28.8%
CC[C@@]1(O)C(=O)OCc2c1cc1n(c2=O)Cc2cc3c(CN(C)C)c(O)ccc3nc2-1 7.73%
Cc1cc(C)cc(-n2ccn(CC(=O)c3ccc(F)cc3)c(=O)c2=O)c1 0.907%
O=C(NCc1ccco1)c1ccc2c(c1)N(Cc1ccccc1)C(=O)c1ccccc1S2 2.7%
CCC1CCCCN1C(=O)c1c[nH]c2ccc(S(=O)(=O)Nc3cccc(OC)c3)cc2c1=O (stereo not given) 14.2%
COC(=O)c1scc(-c2ccc(C)cc2)c1S(=O)(=O)N1CCN(c2ccc(F)cc2)CC1 0.125%
Nc1c(C(=O)NCc2cccs2)nnn1CC(=O)Nc1cccc(F)c1 -2.24%
O=C(c1ccc(CS(=O)(=O)c2ccc(Br)cc2)o1)N1CCN(c2ccc(F)cc2)CC1 -5.88%
Cc1ccc(NC(=O)c2sc3ncnc(N(C)C4CCCCC4)c3c2C)c(C)c1 1.35%
O=C(O)c1ccc(NS(=O)(=O)c2ccc(Cl)c(C(=O)Nc3ccccc3)c2)cc1 3.45%
Cc1ccc(N(C)S(=O)(=O)c2ccc3[nH]c(=O)ccc3c2)cc1 12.3%
Cc1c(NC(=O)Nc2ccc(Cl)c(Cl)c2)sc2nc3n(c(=O)c12)CCC(C)CC3 (stereo not given) 8.39%
COC(=O)c1ccc(CSc2c(C(C)C)cnc3c2c(=O)n(C)c(=O)n3C)cc1 -6.86%
Cc1oc2c(cc(NS(=O)(=O)c3ccc(C(C)C)cc3)c3ccccc32)c1C(=O)OCc1ccccc1 -9.44%
Cc1cccc(C2=Nc3ccccc3N=C(c3cc(Cl)ccc3O)C2)c1 2.44%
O=C(Nc1nc2n(n1)C(c1ccc(F)cc1)C=C(c1ccc(Cl)cc1)N2)c1ccc([N+](=O)[O-])cc1 (stereo not given) 0.369%
COc1ccc(NC(=O)c2cnn(-c3ccc(C)c(C)c3)c2C2CCNCC2)cc1OC 6.89%
COc1ccccc1CC(=O)Nc1ccc2nc(Nc3cccc(C(F)(F)F)c3)cc(C)c2c1 1.41%
CCOc1ccc(-n2c(C)nc3cc(C(=O)NC4CCCC4)ccc32)cc1 7.98%
Cc1cccc(NC(=O)/C(C#N)=C/c2ccco2)c1 -1.49%
COc1ccc(OC)c(CNC(=O)c2cc3c(Cl)nc4ccccc4c3s2)c1 -3.82%
CCCNC(=O)Cn1nc(-c2ccc(OC)cc2)c2cnc3ccc(F)cc3c21 -4.34%
O=C(Nc1cccc(Br)c1)N1CCN2CCCCC2C1 (stereo not given) 21.3%
CC(=O)c1cccc(NS(=O)(=O)c2ccc3[nH]c4c(c3c2)CCCCC4)c1 -10.6%
CCN1CCN(c2ccc(Nc3cc(N(C)C(=O)Nc4c(Cl)c(OC)cc(OC)c4Cl)ncn3)cc2)CC1 1.91%
COc1ccc(-c2c(C)nn3c(C(F)(F)F)cc(-c4ccc(C)cc4)nc23)cc1 -3%
COc1ccc(C(CC(=O)Nc2cc(Cl)c(OC)cc2OC)N2Cc3ccccc3C2=O)cc1 (stereo not given) 0.621%
COc1ccc(NC(=O)C(c2ccccc2)N(C)C(=O)/C=C\c2ccc3c(c2)OCO3)cc1 (stereo not given) 1.27%
Cc1cn2c(=O)c(S(=O)(=O)Nc3ccc(OC(F)(F)F)cc3)c(C)nc2s1 4.67%
CC(=O)NNc1ncnc2c1cnn2-c1ccccc1 2.96%
COC(=O)c1cnc(N2CCN(c3ccc(OC)cc3)CC2)c2ccccc12 -2.28%
COC(=O)c1c(-c2ccc(Cl)cc2)noc1N1CCN(c2ccc(C(C)=O)cc2)CC1 -2.92%
CCCNC(=O)CCc1c(C)nc2nc(CNC(=O)c3ccccc3)nn2c1C -3.38%
CCCCc1ccc(NC(=O)CSc2nc3ccccc3nc2N2CCCCC2)cc1 4.88%
COc1ccc(NC(=O)c2oc3ccccc3c2NC(=O)c2cc3ccccc3o2)c(OC)c1 -11.3%
CCOc1ccc(NC(=O)C(CC)n2nc(C)c3c(C)n(-c4ccccc4)nc3c2=O)cc1 (stereo not given) 16.8%
Cc1ccc(F)cc1NC(=O)CSc1nc(-c2cccs2)cc(C(F)(F)F)n1 -0.707%
COC(=O)c1ccccc1NC(=O)CCCn1nc(C)c2c(C)n(-c3ccccc3)nc2c1=O 5.35%
CCOc1ccccc1CNC(=O)c1ccc(-n2c(C)cc3c2CCC(C)C3)cc1 (stereo not given) -3.64%
CCn1c2ccccc2c2cc(CN3CCN(Cc4cccc(Cl)c4)CC3)ccc21 -41%
COc1cccc(NC(=O)CCNC(=O)Cn2cnc3ccccc3c2=O)c1 8.13%
COc1cc(C(CC(=O)NCc2ccccc2Cl)N2Cc3ccccc3C2=O)cc(OC)c1OC (stereo not given) -11.9%
Cc1ccc(-c2onc(C)c2C)cc1S(=O)(=O)N1CCN(c2ccccc2F)CC1 -4%
COc1cc(OC)c(NC(=O)Nc2ccc3c(c2)N(C)C(=O)c2ccccc2S3)cc1Cl 12.4%
Cc1ccc(NC(=O)C(=O)NCC(c2cccnc2)N2CCN(Cc3ccccc3)CC2)cc1Cl (stereo not given) 8.78%
CCCOc1ccc(Oc2nc(NC)nc(N3CCOCC3)n2)nn1 -3.44%
COC(=O)c1sc(N2C(=O)c3oc4ccc(C)cc4c(=O)c3C2c2ccc(OC)cc2)nc1C (stereo not given) -0.643%
Cc1cc(Cl)ccc1NC(=O)CSc1nc2c(c(=O)[nH]1)CCC2 7.47%
Cc1ccc(CNC(=O)c2cc(-c3ccc(C)c(C)c3)nc3ccccc23)cc1 -0.159%
Cc1ccc(Cl)cc1N1CCN(c2nc3ccccc3c3nc(-c4cccnc4)nn23)CC1 -6.45%
Cc1ccc(C(=O)O)cc1NC(=O)c1nsc2ccccc12 -8.93%
COc1ccc(NC(=O)CSc2nc(-c3cc(OC)c(OC)c(OC)c3)[nH]c2-c2ccc(F)cc2)cc1 -1.72%
Cc1ccc(Nc2cc(C(=O)NCCc3ccccc3)c3ccccc3n2)c(C)c1 -1.44%
COc1cc(NC(=O)CN2CCN(S(=O)(=O)c3ccc(Br)cc3)CC2)cc(OC)c1 -3.29%
COc1ccc(CNS(=O)(=O)c2cc3c(cc2Cl)N(C(C)=O)CCO3)cc1 -0.403%
O=C(CSc1nc(-c2ccccc2)cn1-c1ccccc1F)Nc1ccc(F)cc1 -8.36%
CC1CCN(C(c2ccccc2)c2sc3nc(-c4ccco4)nn3c2O)CC1 (stereo not given) -11.1%
O=C(Nc1cccc(F)c1)C1CCCN(S(=O)(=O)c2cccc3cccnc23)C1 (stereo not given) -0.532%
Cc1nc2ccc(S(=O)(=O)N(C)CC(=O)Nc3ccc(C(C)C)cc3)cc2s1 -7.77%
Cc1ccccc1Cn1c(COc2ccc(Cl)cc2)nc2ccccc21 4.46%
COc1ccc(CNC(=O)C2CCN(c3nnc(-n4c(C)ccc4C)s3)CC2)c(OC)c1 -9.32%
CCCOC(=O)c1cccc(NC(=O)c2c(-c3ccccc3Cl)noc2C)c1 -0.638%
O=C(Cn1nc(-c2ccc(Cl)cc2)c2ccccc2c1=O)Nc1cccc(Br)c1 -0.194%
O=c1c2cc3c(cc2nc2sc(Nc4ccccc4)nn12)OCO3 -5.02%
COc1ccc(NC(=O)CN2CCN(CC(=O)Nc3ccccc3F)CC2)c(OC)c1 10.7%
Cc1ccc(-n2ncc(C(=O)NCCN3CCc4ccccc4C3)c2C2CCN(C(=O)OC(C)(C)C)CC2)cc1C -27.7%
CC1CCN(S(=O)(=O)c2ccc3c(c2)c(=O)c(C(=O)N2CCN(c4cccc(Cl)c4)CC2)cn3C)CC1 6.18%
COc1ccc(N2CCN(c3ncnc4c3cnn4-c3ccc(F)cc3)CC2)cc1 25.1%
COc1ccc(S(=O)(=O)c2c(Nc3cccc(C)c3C)sc(C(=O)c3ccccc3)c2N)cc1 -34.8%
CCOCCc1nn2c(=O)cc(COC(=O)c3ccc(NC(=O)C4CCCCC4)cc3)nc2s1 -5.51%
COc1ccc(NC(=O)C2=CC(c3ccco3)=NS(=O)(=O)N2C)cc1OC 0.827%
CCc1ccccc1NC(=O)CCCSc1nc(-c2ccco2)cc(C(F)(F)F)n1 8.38%
CCCN(C(=O)c1cn(C)c(=O)c2cc(OC)c(OC)cc12)c1ccc(CC)cc1 6.09%
CC1=C(C(=O)Nc2ccccc2Cl)C(c2cccc(O)c2)n2ncnc2N1 (stereo not given) -2.27%
Cc1nn(-c2ccccc2)c(OC(=O)c2ccccc2Br)c1S(=O)(=O)c1ccccc1 8.31%
O=C(CS(=O)(=O)c1cccc2nsnc12)N1CCN(c2ccccc2F)CC1 9.94%
Cc1cc(NC(=O)c2ccc3c(c2)N(Cc2cccc(Cl)c2)C(=O)c2ccccc2S3(=O)=O)ccc1Br 1.89%

outcome, inactive:
CCOC(=O)c1cc(-c2ccc(C)cc2)n(CCCC(=O)Nc2cc(C)ccc2C)c1
CCOc1ccc(NC(=O)CCc2c(C)nc3cc(-c4ccccc4OC)nn3c2C)cc1
N#C/C(=C\c1ccc(OCc2ccc(Cl)cc2Cl)cc1)c1nc2ccccc2[nH]1
COc1ccc(CNC(=O)Cn2c(=O)n3nc(-c4ccc(OC)cc4)nc3c3ccccc32)cc1
CCOc1ccc(C(=O)Nc2ccc3nc(Nc4cccc(C(F)(F)F)c4)cc(C)c3c2)cc1OCC
COc1ccc(-c2noc(CSc3nnc(C)n3-c3ccc(F)cc3)n2)cc1
Cc1ccccc1OCC(=O)Nc1c(C(=O)Nc2ccccc2F)oc2ccccc12
Cc1ccccc1NS(=O)(=O)c1ccc2[nH]cc(C(=O)NCCc3ccccc3)c(=O)c2c1
CCOC(=O)c1ccc(NC(=O)CS(=O)(=O)Cc2nc(-c3ccc(C)cc3)oc2C)cc1
Cc1ccc(NC(=O)CN2C(=O)CC(c3ccco3)Sc3ccccc32)cc1Cl (stereo not given)
COc1cc(OC)cc(-n2c(=O)c3sccc3n(Cc3ccc(F)cc3)c2=O)c1
COc1ccc(CCNC(=O)CN2C(=O)COc3ccc(S(=O)(=O)N4CCCC4)cc32)cc1OC
CCN(c1ccccc1)S(=O)(=O)c1c(C)nc2scc(C)n2c1=O
COc1ccc(-c2nc(SCC(=O)NC(C)CCc3ccccc3)n[nH]2)cc1 (stereo not given)
CCN(c1ccccc1)S(=O)(=O)c1nnc(NC(=O)c2ccccc2OC)s1
O=C1CC(c2c(Cl)cccc2Cl)c2c(ccc3ccccc23)N1 (stereo not given)
COc1ccccc1CNc1nc2ccc(C)cc2n2nnnc12
O=C(Nc1ccc(Cl)cc1)C1CCC(CNS(=O)(=O)c2ccc(Br)s2)CC1 (stereo not given)
